# Measured values as given in the supplement of paper PMC8728848.
# The list shows a part of the results.
# How the values were obtained:
# Assay in all cases: glycan array binding signal (z-score within array); higher = stronger binding
# Details in all cases: glycan notation: IUPAC condensed, linker removed
# [1] = target: Gal3S(b1-4)GlcNAc
# How it was run: (§1)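 Glycan array binding is given as a within-array Z-score, which can be read as non-binding when negative. The arrays, 3228 of them, came from the Consortium for Functional Glycomics database and were retained only where the protein sequence was available. Z-scores were averaged across arrays of the same protein sequence at different concentrations or buffers and across linkers.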
# [2] = target: Gal3S(b1-4)GlcNAc6S
# How it was run: as §1
# [3] = target: Gal3S(b1-4)[Fuc(a1-3)]Glc
# How it was run: as §1
# [4] = target: Gal3S4S(b1-4)GlcNAc
# How it was run: as §1
# [5] = target: Gal3S6S(b1-4)GlcNAc
# How it was run: as §1
# [6] = target: Gal3S6S(b1-4)GlcNAc6S
# How it was run: as §1
# [7] = target: Gal4S(b1-4)GlcNAc
# How it was run: as §1
# [8] = target: Gal4S6S(b1-4)GlcNAc
# How it was run: as §1
# [9] = target: Gal6S(b1-4)Glc
# How it was run: as §1
# [10] = target: Gal6S(b1-4)Glc6S
# How it was run: as §1
# [11] = target: Gal6S(b1-4)GlcNAc
# How it was run: as §1
# [12] = target: Gal6S(b1-4)GlcNAc6S
# How it was run: as §1
# [13] = target: GalNAc(a1-3)Gal
# How it was run: as §1
# [14] = target: GalNAc(a1-3)GalNAc
# How it was run: as §1
# [15] = target: GalNAc(b1-3)Gal
# How it was run: as §1
# [16] = target: GalNAc(b1-3)Gal(a1-4)Gal(b1-4)GlcNAc
# How it was run: as §1
# [17] = target: GalNAc(b1-3)GalNAc
# How it was run: as §1
# [18] = target: GalNAc(b1-4)GlcNAc
# How it was run: as §1
# [19] = target: Glc(a1-4)Glc
# How it was run: as §1
# [20] = target: Glc(a1-6)Glc(a1-6)Glc
# How it was run: as §1
# [21] = target: Glc(b1-4)Glc
# How it was run: as §1
# [22] = target: Glc(b1-6)Glc
# How it was run: as §1
# [23] = target: GlcA(b1-3)Gal
# How it was run: as §1
# [24] = target: GlcA(b1-3)GlcNAc
# How it was run: as §1
# [25] = target: GlcA(b1-6)Gal
# How it was run: as §1
# [26] = target: GlcNAc(a1-3)Gal(b1-4)GlcNAc
# How it was run: as §1
# [27] = target: GlcNAc(a1-6)Gal(b1-4)GlcNAc
# How it was run: as §1
# [28] = target: GlcNAc(b1-2)Gal(b1-3)GalNAc
# How it was run: as §1
# [29] = target: GlcNAc(b1-2)Man(a1-3)[GlcNAc(b1-2)Man(a1-6)]Man(b1-4)GlcNAc(b1-4)GlcNAc
# How it was run: as §1
# [30] = target: GlcNAc(b1-3)Gal
# How it was run: as §1
# [31] = target: GlcNAc(b1-3)Gal(b1-3)GalNAc
# How it was run: as §1
# [32] = target: GlcNAc(b1-3)Gal(b1-4)Glc
# How it was run: as §1
# [33] = target: GlcNAc(b1-3)Gal(b1-4)GlcNAc
# How it was run: as §1
# [34] = target: GlcNAc(b1-3)Gal(b1-4)GlcNAc(b1-3)Gal(b1-4)GlcNAc
# How it was run: as §1
# [35] = target: GlcNAc(b1-3)GalNAc
# How it was run: as §1
# [36] = target: GlcNAc(b1-3)Man
# How it was run: as §1
# [37] = target: GlcNAc(b1-3)[GlcNAc(b1-4)][GlcNAc(b1-6)]GlcNAc
# How it was run: as §1
# [38] = target: GlcNAc(b1-3)[GlcNAc(b1-6)]Gal(b1-4)GlcNAc
# How it was run: as §1
# [39] = target: GlcNAc(b1-3)[GlcNAc(b1-6)]GalNAc
# How it was run: as §1
# [40] = target: GlcNAc(b1-4)Gal(b1-4)GlcNAc
# How it was run: as §1
# [41] = target: GlcNAc(b1-4)GlcNAc
# How it was run: as §1
# [42] = target: GlcNAc(b1-4)GlcNAc(b1-4)GlcNAc
# How it was run: as §1
# [43] = target: GlcNAc(b1-4)GlcNAc(b1-4)GlcNAc(b1-4)GlcNAc(b1-4)GlcNAc
# How it was run: as §1
# [44] = target: GlcNAc(b1-4)GlcNAc(b1-4)GlcNAc(b1-4)GlcNAc(b1-4)GlcNAc(b1-4)GlcNAc
# How it was run: as §1
# [45] = target: GlcNAc(b1-4)[GlcNAc(b1-6)]GalNAc
# How it was run: as §1
binder,measurement,setting,value
"Langerin CRD (Homo sapiens), Q9UJ71 (protein) QVVSQGWKYFKGNFYYFSLIPKTWYSAEQFCVSRNSHLTSVTSESEQEFLYKTAGGLIYWIGLTKAGMEGDWSWVDDTPFNKVQSVRFWIPGEPNNAGNNEHCGNIKAPSLQAWNDAPCDKTFLFICKRPYVPSEPSAWSHPQFEK",glycan array binding signal (z-score),[1],-0.527
same,glycan array binding signal (z-score),[2],-0.22
same,glycan array binding signal (z-score),[3],-0.252
same,glycan array binding signal (z-score),[4],-0.278
same,glycan array binding signal (z-score),[5],-0.421
same,glycan array binding signal (z-score),[6],-0.366
same,glycan array binding signal (z-score),[7],-0.279
same,glycan array binding signal (z-score),[8],-0.313
same,glycan array binding signal (z-score),[9],1.81
same,glycan array binding signal (z-score),[10],4.01
same,glycan array binding signal (z-score),[11],2.06
same,glycan array binding signal (z-score),[12],6.72
same,glycan array binding signal (z-score),[13],-0.433
same,glycan array binding signal (z-score),[14],-0.498
same,glycan array binding signal (z-score),[15],0.049
same,glycan array binding signal (z-score),[16],-0.356
same,glycan array binding signal (z-score),[17],2.47
same,glycan array binding signal (z-score),[18],-0.362
same,glycan array binding signal (z-score),[19],-0.157
same,glycan array binding signal (z-score),[20],-0.188
same,glycan array binding signal (z-score),[21],-0.315
same,glycan array binding signal (z-score),[22],-0.395
same,glycan array binding signal (z-score),[23],-0.387
same,glycan array binding signal (z-score),[24],0.023
same,glycan array binding signal (z-score),[25],-0.619
same,glycan array binding signal (z-score),[26],0.17
same,glycan array binding signal (z-score),[27],-0.124
same,glycan array binding signal (z-score),[28],4.61
same,glycan array binding signal (z-score),[29],1.27
same,glycan array binding signal (z-score),[30],0.773
same,glycan array binding signal (z-score),[31],0.953
same,glycan array binding signal (z-score),[32],2.31
same,glycan array binding signal (z-score),[33],1.68
same,glycan array binding signal (z-score),[34],0.437
same,glycan array binding signal (z-score),[35],1.28
same,glycan array binding signal (z-score),[36],0.754
same,glycan array binding signal (z-score),[37],0.916
same,glycan array binding signal (z-score),[38],0.542
same,glycan array binding signal (z-score),[39],2.21
same,glycan array binding signal (z-score),[40],1.57
same,glycan array binding signal (z-score),[41],0.412
same,glycan array binding signal (z-score),[42],0.701
same,glycan array binding signal (z-score),[43],-0.437
same,glycan array binding signal (z-score),[44],-0.424
same,glycan array binding signal (z-score),[45],1.62
